Values joined by “and” are separate entries in the source; they are usually repeats but may differ in a detail not shown here. Equal entries are not always repeated. The source gives many values for each of these; only a part stands here.
Assays:
[1] = xn = mol fraction of the nth substance listed
[2] = 101 kPa

CCCCCCCCO + COC(=O)OC
[1], 323.15 K, 100 kPa
Details	viscosity [mPa·s]
x2 = 0.1999	2.004
x2 = 0.3	1.581
x2 = 0.3999	1.262
x2 = 0.5	1.023
x2 = 0.6	0.832
x2 = 0.7	0.699
x2 = 0.7999	0.578
x2 = 0.9	0.491

O=C[C@H](O)[C@@H](O)[C@H](O)[C@H](O)CO + O
[1]
Details	viscosity
293.15 K, 100 kPa, x1 = 0.024	1.9 mPa·s
293.15 K, 101 kPa, x1 = 0.001	1.019 mPa·s
293.15 K, 101 kPa, x1 = 0.0018	1.036 mPa·s
293.15 K, 101 kPa, x1 = 0.002	1.043 mPa·s
293.15 K, 101 kPa, x1 = 0.005	1.137 mPa·s
293.15 K, 101 kPa, x1 = 0.011	1.286 mPa·s
298.15 K, 101 kPa, x1 = 0.0002	0.9013 mPa·s
298.15 K, 101 kPa, x1 = 0.00045	0.893 mPa·s
298.15 K, 101 kPa, x1 = 0.0005	0.9169 mPa·s
298.15 K, 101 kPa, x1 = 0.0009	0.895 mPa·s
298.15 K, 101 kPa, x1 = 0.001	0.9634 mPa·s and 0.906 mPa·s
298.15 K, 101 kPa, x1 = 0.0013	0.898 mPa·s
298.15 K, 101 kPa, x1 = 0.0018	0.9874 mPa·s and 0.9 mPa·s and 0.922 mPa·s
298.15 K, 101 kPa, x1 = 0.002	0.9826 mPa·s
298.15 K, 101 kPa, x1 = 0.011	1.154 mPa·s
298.15 K, 101 kPa, x1 = 0.01901	1.517 mPa·s
303.15 K, 100 kPa, x1 = 0.0009	0.819 mPa·s
303.15 K, 100 kPa, x1 = 0.0027	0.853 mPa·s
303.15 K, 100 kPa, x1 = 0.0045	0.887 mPa·s
303.15 K, 100 kPa, x1 = 0.0063	0.9201 mPa·s
303.15 K, 101 kPa, x1 = 0.001	0.814 mPa·s
303.15 K, 101 kPa, x1 = 0.0018	0.828 mPa·s
303.15 K, 101 kPa, x1 = 0.002	0.83 mPa·s
303.15 K, 101 kPa, x1 = 0.005	0.9067 mPa·s
303.15 K, 101 kPa, x1 = 0.011	1.036 mPa·s
308.15 K, 101 kPa, x1 = 0.00045	0.722 mPa·s
308.15 K, 101 kPa, x1 = 0.0009	0.723 mPa·s
308.15 K, 101 kPa, x1 = 0.0013	0.725 mPa·s
308.15 K, 101 kPa, x1 = 0.0018	0.727 mPa·s and 0.748 mPa·s
308.15 K, 101 kPa, x1 = 0.005	0.8176 mPa·s
308.15 K, 101 kPa, x1 = 0.011	0.9311 mPa·s
313.15 K, 100 kPa, x1 = 0.0009	0.6716 mPa·s
313.15 K, 100 kPa, x1 = 0.024	1.15 mPa·s
313.15 K, 101 kPa, x1 = 0.001	0.67 mPa·s
313.15 K, 101 kPa, x1 = 0.0018	0.681 mPa·s
313.15 K, 101 kPa, x1 = 0.002	0.683 mPa·s
313.15 K, 101 kPa, x1 = 0.005	0.7401 mPa·s
313.15 K, 101 kPa, x1 = 0.011	0.8389 mPa·s
318.15 K, 101 kPa, x1 = 0.00045	0.598 mPa·s
318.15 K, 101 kPa, x1 = 0.0009	0.6 mPa·s
318.15 K, 101 kPa, x1 = 0.0013	0.602 mPa·s
318.15 K, 101 kPa, x1 = 0.0018	0.604 mPa·s
318.15 K, 101 kPa, x1 = 0.005	0.6767 mPa·s
318.15 K, 101 kPa, x1 = 0.011	0.7615 mPa·s

CCCCn1cc[n+](C)c1.COS(=O)(=O)[O-]
[2]
Details	viscosity [mPa·s]
298.15 K	215.2
299.15 K	202.9
301.15 K	181.2
302.15 K	171.4
303.15 K	162.3
304.15 K	156.8
305.15 K	145.7
307.15 K	131.2

CN1CCCN(C)C1=O + O
viscosity, [1]
Details	293.15 K	298.15 K	303.15 K	323.15 K
100 kPa, x1 = 0.007139	1.207 mPa·s	1.066 mPa·s	–	0.639 mPa·s
100 kPa, x1 = 0.01508	1.435 mPa·s	1.267 mPa·s	–	0.776 mPa·s
100 kPa, x1 = 0.0297	–	–	–	0.902 mPa·s
100 kPa, x1 = 0.0568	2.715 mPa·s	2.295 mPa·s	–	1.25 mPa·s
100 kPa, x1 = 0.08573	3.965 mPa·s	3.285 mPa·s	–	1.579 mPa·s
100 kPa, x1 = 0.1227	5.656 mPa·s	4.614 mPa·s	–	2.041 mPa·s
100 kPa, x1 = 0.1461	6.909 mPa·s	5.559 mPa·s	–	2.35 mPa·s
100 kPa, x1 = 0.1745	8.375 mPa·s	6.615 mPa·s	–	2.651 mPa·s
100 kPa, x1 = 0.2062	9.318 mPa·s	7.376 mPa·s	–	2.91 mPa·s
100 kPa, x1 = 0.2453	10.24 mPa·s	8.068 mPa·s	–	3.139 mPa·s
100 kPa, x1 = 0.2961	10.82 mPa·s	8.492 mPa·s	–	3.296 mPa·s
100 kPa, x1 = 0.3486	10.68 mPa·s	8.424 mPa·s	–	3.327 mPa·s
100 kPa, x1 = 0.3968	10.08 mPa·s	7.993 mPa·s	–	3.215 mPa·s
100 kPa, x1 = 0.4616	9.277 mPa·s	7.512 mPa·s	–	3.185 mPa·s
100 kPa, x1 = 0.5081	8.518 mPa·s	6.965 mPa·s	–	3.064 mPa·s
100 kPa, x1 = 0.5809	7.345 mPa·s	6.105 mPa·s	–	2.855 mPa·s
100 kPa, x1 = 0.6498	6.342 mPa·s	5.325 mPa·s	–	2.593 mPa·s
100 kPa, x1 = 0.6917	5.824 mPa·s	4.954 mPa·s	–	2.499 mPa·s
100 kPa, x1 = 0.797	4.745 mPa·s	4.102 mPa·s	–	2.219 mPa·s
100 kPa, x1 = 0.8669	4.17 mPa·s	3.644 mPa·s	–	2.055 mPa·s
100 kPa, x1 = 0.9357	3.761 mPa·s	3.326 mPa·s	–	1.968 mPa·s
100 kPa, x1 = 0.9554	3.604 mPa·s	3.187 mPa·s	–	1.886 mPa·s
100 kPa, x2 = 0.0016	3.278 mPa·s and 3.3 mPa·s	2.917 mPa·s and 2.937 mPa·s	2.609 mPa·s and 2.628 mPa·s	–
100 kPa, x2 = 0.0169	3.401 mPa·s	3.022 mPa·s	2.7 mPa·s	–
101 kPa, x1 = 0.06	–	2.48 mPa·s	–	–
101 kPa, x1 = 0.2	–	7.11 mPa·s	–	–
101 kPa, x1 = 0.304	–	8.44 mPa·s	–	–
101 kPa, x1 = 0.348	–	8.47 mPa·s	–	–
101 kPa, x1 = 0.4	–	8.02 mPa·s	–	–
101 kPa, x1 = 0.487	–	7.06 mPa·s	–	–
101 kPa, x1 = 0.548	–	6.32 mPa·s	–	–
101 kPa, x1 = 0.699	–	4.79 mPa·s	–	–

N[C@@H](Cc1c[nH]cn1)C(=O)O + O
[1], 100 kPa
Details	viscosity [mPa·s]
298.15 K, x1 = 0.0011	0.9027
298.15 K, x1 = 0.00145	0.9066
298.15 K, x1 = 0.00177	0.9102
298.15 K, x1 = 0.002209	0.915
303.15 K, x1 = 0.000193	0.7995
303.15 K, x1 = 0.002209	0.8207
308.15 K, x1 = 0.000193	0.7212
308.15 K, x1 = 0.000403	0.7232
308.15 K, x1 = 0.00074	0.7265
308.15 K, x1 = 0.0011	0.73
308.15 K, x1 = 0.00145	0.7334
313.15 K, x1 = 0.000403	0.6569
313.15 K, x1 = 0.00074	0.6601
